Assay results reported in publication PMC4336329 (PLoS ONE, 2015).
The campaign covered roughly 310,000 compounds. About 14,000 (4.5%) showed an effect of 50% or more. The effect is printed as a negative number. This is one part of the list.

Target: human ether-à-go-go-related gene (hERG) potassium channel (human, UniProt Q12809)
Test: primary screen, population patch clamp on CHO cells stably expressing hERG
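Note: peak tail current of the secondary pulse compared with the same well before compound.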

Chain of human ether-à-go-go-related gene (hERG) potassium channel (Q12809 whole entry, looked up): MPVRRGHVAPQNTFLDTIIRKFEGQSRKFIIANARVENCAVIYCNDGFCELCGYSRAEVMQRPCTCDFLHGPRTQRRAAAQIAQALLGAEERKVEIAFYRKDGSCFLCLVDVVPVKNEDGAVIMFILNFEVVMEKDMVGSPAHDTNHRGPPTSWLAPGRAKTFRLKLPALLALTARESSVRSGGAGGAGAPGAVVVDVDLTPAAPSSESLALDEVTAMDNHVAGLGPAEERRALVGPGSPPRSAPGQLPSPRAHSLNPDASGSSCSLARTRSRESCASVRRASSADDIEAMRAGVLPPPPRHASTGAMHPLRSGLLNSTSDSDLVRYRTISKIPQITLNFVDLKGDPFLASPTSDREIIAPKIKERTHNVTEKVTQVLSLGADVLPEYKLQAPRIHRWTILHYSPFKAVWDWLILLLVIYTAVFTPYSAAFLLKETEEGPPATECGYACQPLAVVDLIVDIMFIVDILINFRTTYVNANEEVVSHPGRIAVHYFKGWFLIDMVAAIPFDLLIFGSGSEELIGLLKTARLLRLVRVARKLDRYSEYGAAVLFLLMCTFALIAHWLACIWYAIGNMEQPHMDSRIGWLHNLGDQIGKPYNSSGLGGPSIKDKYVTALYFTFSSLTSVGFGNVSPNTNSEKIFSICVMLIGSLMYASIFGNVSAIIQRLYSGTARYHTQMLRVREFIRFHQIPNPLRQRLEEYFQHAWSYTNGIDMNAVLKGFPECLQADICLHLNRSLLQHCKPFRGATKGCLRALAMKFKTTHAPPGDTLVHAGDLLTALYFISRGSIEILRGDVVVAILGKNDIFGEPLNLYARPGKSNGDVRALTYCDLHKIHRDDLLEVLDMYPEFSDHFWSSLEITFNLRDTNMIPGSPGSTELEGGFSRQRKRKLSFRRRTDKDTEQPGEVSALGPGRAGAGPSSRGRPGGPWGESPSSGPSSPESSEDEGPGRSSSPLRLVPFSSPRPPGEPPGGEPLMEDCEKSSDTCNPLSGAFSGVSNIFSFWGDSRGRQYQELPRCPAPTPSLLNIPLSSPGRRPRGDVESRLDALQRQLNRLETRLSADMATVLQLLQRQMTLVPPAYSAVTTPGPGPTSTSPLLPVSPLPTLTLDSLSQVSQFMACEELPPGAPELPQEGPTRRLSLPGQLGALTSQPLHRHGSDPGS

Point of comparison: Cc1cc(C)n2nc(C(=O)OC(C)C(=O)c3ccccc3)nc2n1 (centres unmarked), “hERG current change (%, negative = inhibition) at 10uM” value 17.9%. Against it:
- CCn1c(SCC(=O)c2cc(C)n(CC3CCCO3)c2C)nc2ccccc21 (centres unmarked) — lower, -11.6%
- CCCCc1cc(=O)oc2cc(C)cc(OCC(=O)N3C[C@H]4C[C@@H](C3)c3cccc(=O)n3C4)c12 — lower, -46.9%
- CC(C)Sc1nc2c(c(=O)n(C)c(=O)n2C)n1Cc1ccc(Cl)cc1 — lower, -2.96%
- COc1ccc(Cl)cc1Nc1nc(NCCO)nc(N2CCCCC2)n1 — lower, -3.45%
- Nc1nnc(-c2cccc([N+](=O)[O-])c2)s1 — lower, -0.408%
- CCOC(=O)Cc1csc(NS(=O)(=O)c2ccc(F)cc2)n1 — lower, 7.33%
- COc1ccc2c(c1)C(SCC(=O)NCCc1ccc(Cl)cc1)CC(C)(C)O2 (centres unmarked) — lower, -8.41%
- CC1=CC(C)(C)NC(=S)N1C(C)c1ccccc1 (centres unmarked) — higher, 22.7%
- O=C(c1ccccc1)c1nn(-c2cccc(Cl)c2)ccc1=O — lower, 1.55%
- Cc1ccc(S(=O)(=O)NCC(c2cccnc2)N2CCc3ccccc32)cc1 (centres unmarked) — lower, -2.1%
- COc1cccc(NC(=O)CN(c2ccccc2OC)S(=O)(=O)c2cccs2)c1 — lower, 2.3%
- COc1ccc(NC(=O)NNC(=O)COc2ccc([N+](=O)[O-])c(C)c2)cc1OC — lower, 10.1%
- O=c1cc(CN2CCN(S(=O)(=O)/C=C/c3ccccc3)CC2)c2ccc(O)cc2o1 — lower, -76.8%
- COc1cccc(C(=O)Nc2ccccc2C(=O)NCC2CCCO2)c1 (centres unmarked) — lower, -14.3%
- O=C(CCc1nnc2ccc(NCc3ccccc3)nn12)NC1CCCC1 — lower, 11.1%
- CCOC(=O)c1cnc(SC)nc1Oc1cccc(NS(=O)(=O)c2ccc(Cl)cc2)c1 — lower, -14.7%
- CC(C)(C)c1ccc(C(=O)N/C(=C\c2cccs2)C(=O)N2CCOCC2)cc1 — lower, -7.22%
- CC(=O)c1c(N(C)C)ccnc1C(F)(F)F — lower, 7.93%
- COc1ccccc1NC(=S)N(C(C)C)C(C)c1ccccn1 (centres unmarked) — lower, -9.06%
- CCNC(=O)CCC(=O)Nc1cc(Cl)ccc1C — higher, 18%
- COc1ccc(N)cc1NC(=O)CN1CCCC1 — higher, 19.3%
- CCN(CC)c1c(-c2ccccc2)c2cc(C)ccc2[nH]c1=O — lower, 2.12%
- COc1cc(CN2CCN(C(=O)COc3ccccc3)CC2)cc(OC)c1OC — lower, -14.1%
- O=C(Oc1ccc(-c2cnc3ccccc3n2)cc1)c1ccc(Br)o1 — higher, 25.5%
- Cc1ccc(C(=O)N(CC(=O)NC2CCCC2)c2cccc(F)c2)s1 — lower, 7.23%
- COc1ccccc1-c1csc(NC(=O)c2cc(-c3cccs3)nc3ccccc23)n1 — lower, 8.88%
- CCOC(=O)Cn1c2c(c(-c3ccccc3OC)cc1=O)CCCC2 — lower, 2.38%
- COc1ccc(C(=O)CSc2nnc(-c3cc4ccccc4cc3O)n2Cc2ccco2)cc1 — lower, -22.4%
- O=C1C2=C(c3ccccc31)[N+](=O)[C@@H]1CCCC[C@@H]1N2[O-] — lower, 14.9%
- O=c1c2cnn(-c3ccccc3)c2ncn1Cc1ccccc1F — lower, 16.5%
- Cc1ccc(S(=O)(=O)CCC(=O)Nc2ccccc2N2CCCC2)cc1 — lower, -10.5%
- Cc1ccc(C(=O)c2cnc3cc4c(cc3c2S(=O)(=O)c2ccccc2)OCCO4)cc1 — higher, 27.9%
- O=C(NCCCCc1ccccc1)C1CC(c2ccc([N+](=O)[O-])cc2)=NO1 (centres unmarked) — lower, -25%
- CC(C)[C@@H](CO)NC(=O)c1ccc2c3n(nc2c1)-c1ccccc1CO3 — lower, 9.78%
- CN(C)S(=O)(=O)c1cc(NC(=O)CN2CCN(c3ccccc3O)CC2)ccc1Cl — lower, -24.3%
- COc1ccc(NC(=O)CN(C)C(=O)CSCc2c(C)noc2C)cc1 — lower, -13.9%
- CCOC(=O)C1CCN(C(=O)CCc2nnc3ccc(NCc4ccco4)nn23)CC1 — lower, -40.6%
- O=C(CCC1CCCCC1)NCCS(=O)(=O)N1CCN(c2ccc(F)cc2)CC1 — lower, -16.2%
- O=C(NCCCN1CCOCC1)/C(=C/c1cccs1)NC(=O)c1ccccc1 — lower, -21.8%
- CC(=O)c1c(COC(=O)c2ccccc2)nc2ccccc2[n+]1[O-] — lower, -12.5%
- CCOC(=O)C1(CCOc2ccccc2)CCN(Cc2ccc(F)c(OC)c2)CC1 — lower, -35.3%
- CCc1ccc2cccc3c2c1N=CN3C — lower, 2.99%
- O=c1[nH]cnc(O)c1C(c1cccc([N+](=O)[O-])c1)c1c(O)nc[nH]c1=O — lower, 10.2%
- CCOc1ccc2nc(NS(=O)(=O)c3cccs3)sc2c1 — higher, 20.8%
- Cc1ccccc1CSCCNC(=O)CCSc1ccccc1 — lower, 2.74%
- O=C1C=CC(=O)N1Nc1ccc(Br)cc1 — lower, 8.97%
- O=C(CN1C(=O)NC2(CCc3ccccc3C2)C1=O)NCC(F)(F)F (centres unmarked) — lower, 11.4%
- CCOC(=O)c1nn(-c2ccc(Cl)cc2C)ccc1=O — lower, -0.255%
- Cc1cc(NC(=O)CSc2nc3cc(Cl)ccc3c(=O)n2CC(C)C)no1 — higher, 27.8%
- CC(C)c1ccccc1NC(=O)Nc1ccc2c(c1)OCO2 — lower, 11.1%
- CCCc1cc(=O)oc2c(C)c(OS(C)(=O)=O)ccc12 — lower, -17%
- COC(=O)Cc1c(O)ccn(CCc2ccccc2)c1=O — higher, 51.2%
- O=C(Cn1cccc1)N1CCN(c2ccc(F)cc2)CC1 — lower, 1.54%
- CN(C)CCOc1ccccc1Cc1ccccc1.O=C(O)CC(O)(CC(=O)O)C(=O)O — lower, -61.9%
- CCOC(=O)N1CCN(C(=O)c2ccc(S(=O)(=O)Nc3cccc(C(F)(F)F)c3)cc2)CC1 — lower, -24.1%
- CC(=C/c1ccccc1)/C=N/NC(=O)c1cnccn1 — lower, -11.4%
- Cc1cc(-c2ccco2)n(-c2ccccc2)n1 — lower, 7.56%
- Oc1ccc(-c2c(-c3ccsc3)sc3ccccc23)cc1 — lower, 15.8%
- NC(N)=Nc1cc2ccccc2c2ccccc12 — lower, -4.47%
- COc1ccc(NC(=O)Cn2nnc(C(=O)NCc3ccccc3OC)c2N)cc1Cl — lower, 11.2%
- CC(=O)/C(N=Nc1cc2c(cc1[N+](=O)[O-])OCCO2)=C(\C)O — higher, 21%
- CC(C)S(=O)(=O)N1CCCC(C(=O)c2cccc(Cl)c2)C1 (centres unmarked) — lower, -5.17%
- O=C(NC1CCS(=O)(=O)C1)c1sc2ccccc2c1Cl (centres unmarked) — lower, -5.59%
- O=C(CNC(=O)c1ccc2c(c1)OCCO2)N/N=C/c1ccco1 — lower, 16.3%
- Cc1cc(C)c(NC(=O)CSc2nc3ncc(Br)cc3[nH]2)c(C)c1 — lower, 17.6%
- CCC(=O)OC1(C(=O)CCl)[C@@H](C)C[C@H]2[C@@H]3CCC4=CC(=O)C=C[C@]4(C)[C@@]3(F)[C@@H](O)C[C@@]21C (some centres unmarked) — lower, 12.4%
- COC(=O)c1ccc(/C=C2\SC(=S)N(CCCC(=O)NCCCN3CCOCC3)C2=O)cc1 — lower, -0.615%
- Cc1ccc(CNc2cc(-c3nn4c(C)nnc4s3)ccc2C)s1 — lower, 12.2%
- CSc1ccccc1NC(=O)C1CC(c2ccccc2Cl)=NO1 (centres unmarked) — lower, 15.7%
- NC(=O)NCc1cccnc1 — higher, 22.2%
- O=C(CNS(=O)(=O)c1ccc(F)c(Cl)c1)NCCc1ccccc1 — lower, 0.875%
- O=C(CC1C(=O)NCCN1Cc1ccoc1)NCCc1ccc(Cl)cc1 (centres unmarked) — lower, -53.7%
- COc1ccccc1NC(=O)NC1(C(=O)N2CCC(O)CC2)CCCCC1 — lower, 7.42%
- COc1ccc(C(=O)c2coc3ccc(O)c(CN4CCCC4)c23)cc1 — lower, -73.4%
- CCOC(=O)c1cccc(N2C(N)=NC(N)=NC2(C)C)c1.Cl — lower, -1.9%
- CC1=C(C(=O)Nc2ccccc2)C(c2ccncc2)C(C#N)=C(SCC(=O)NC2CC2)N1 (centres unmarked) — lower, -1.72%
- COc1ccc(CCNS(=O)(=O)c2cc3c4c(c2)CCN4C(=O)CC3)cc1 — lower, -20.2%
- CCOCc1nnc(NC(=O)c2ccco2)s1 — lower, -24.6%
- Cc1c[nH]c2ccccc12 — lower, 14.9%
- Cc1ccc(NC(=O)Cn2sc3nc(C)cc(C)c3c2=O)c(Cl)c1 — lower, 9.33%
- CC(C)(C)c1ccc(C(=O)CS(=O)(=O)c2ccccc2)cc1 — lower, -21.9%
- Cc1cnc(C)c(N2CCC(C(=O)NCc3cccs3)CC2)n1 — lower, -14.3%
- CCc1ccc(NC(=O)CSc2ccc(-c3ccco3)nn2)cc1 — lower, -16.6%
- COc1ccc(CCNC(=O)c2ccccc2OCc2ccccc2)cc1 — lower, -6.68%
- Cc1sc2nc(CN3CCCC3)nc(N3CCC(C(N)=O)CC3)c2c1C — lower, -3.64%
- O=C(Nc1ccccc1Br)C1CC(=O)N(c2ccc3c(c2)OCCO3)C1 (centres unmarked) — lower, -8.6%
- Cc1nn(C)cc1C(=O)Nc1ccccc1Br — lower, 16.7%
- O=C(CSc1nnc(-c2cccs2)o1)N1CCc2ccccc21 — lower, -10.5%
